Some of the results follow.
test system: PfAP2-HC AP2 domain (GST-tagged); assay: gcPBM binding intensity (ln(normalized median fluorescence intensity)); higher = stronger DNA binding
Outline: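 Alexa488 anti-GST antibody, scanned at 488 nm, detected GST-tagged P. falciparum DNA-binding domains that had been expressed in E. coli and incubated for 1 h on an Agilent 4 × 180k array. The array carried primer-extended double-stranded 36-bp intergenic genomic probes and negative controls. Binding intensity is the highest Masliner-normalised natural-log median intensity across replicate spots of either orientation of each probe.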

Row | Sequence | gcPBM binding intensity (ln)
1 | GAGAGGATAGTTCACAGTACTCAGTAACTCTACGGA [XGTACX_site4875] | 9.6
2 | TAATAATATATTTGTAGTACACAATTTTTTATAACT [XGTACX_site3951] | 9.69
3 | CACACGCACGGACACACACACATATAAAATCTATAT [CACACA_site6428] | 11.1
4 | TGTTATTAAAATATAGTGCATAATTAACCATTATAA [GTGCAC_site9594] | 9.5
5 | TACTTATATACACATGTATATTATATATATAATATA [XGTACX_negctrl_site335] | 9.66
6 | TACTATAACAGACATACACACAAAAAAAAAAAAAAA [CACACA_site538] | 9.9
7 | TCATAAATGAAACACACACACACATCTGGATACCCC [CACACA_site3332] | 10.7
8 | AATCAATATAAATAAAATTTTTAATTTTAACCCTAA [GTGCAC_negctrl_site266] | 9.49
9 | ATTATATATATAAAGTGTACAAAAAAAAAAAAAAAA [XGTACX_site3134] | 9.53
10 | AATGTCCTTATTTGCACACACACATATAAGAAATTT [CACACA_site3186] | 10.1
11 | TATAATAAATCATATGCATGTTGAAAAAAAAAAAAA [TGCATGCA_site923] | 9.55
12 | ATTTGAGAGTTAACAAAATATTTGGCCATCTTTTAT [XGTACX_negctrl_site447] | 9.61
13 | AACTCATAGCGGTGTGCACACAAAAAATTAAAAAAA [CACACA_site3033] | 10.2
14 | AAAACAAATTAAAATCGTACAATTATAATGTTAATG [XGTACX_site180] | 9.7
15 | TATAAAATAAAAATTATATATTTTAAATGGATACAA [TGCATGCA_negctrl_site284] | 9.36
16 | ATAGCTAAGATAGCTTGTACATATATTTACATATAT [XGTACX_site3694] | 9.81
17 | ATGCACATTTATAAAAGTACATGTATGTAATATGTT [XGTACX_site830] | 9.76
18 | ATTTAAATGAAAAAATGTACAAAAAGATTTAAACTC [XGTACX_site1489] | 9.99
19 | TTGTATTTACACGATCAACCAAATGGTATATAAATA [GTGCAC_negctrl_site167] | 9.52
20 | ATATGTAGTTTTTACCTAATAAAAAAAAAAAAAAAA [CACACA_negctrl_site672] | 9.41
21 | TAAACATATAAAAAGGGTACACATTAAACATAGTAT [XGTACX_site7096] | 9.82
22 | AAATCATTCCTTTATTCACACAATATCTGTATTTAT [CACACA_site4407] | 9.83

Row | Sequence | gcPBM binding intensity (ln)
23 | ATATATAAAAATATTTGTACATATAGTTATATTTAT [XGTACX_site6114] | 9.73
24 | TTAAGCCGCAATATGGGTACATAGGAAGAAGGGGAA [XGTACX_site8397] | 9.56
25 | TTTCTTTTTCTAGTTATTTTTACTTATCCCTAATTT [TGCATGCA_negctrl_site460] | 9.6
26 | TTATAATTAAGATATAATCAATAATAACAAATGAAC [CACACA_negctrl_site1690] | 9.64
27 | TTCTTTGCTTCTGTTTCACACATTTTTAAAATAAGC [CACACA_site4741] | 9.81
28 | TTAAAGGGAATGTATACACACGTTTCTCTATGTTAT [CACACA_site4793] | 9.89
29 | GTGCGTGCGTGTACTTAACACACATAATATGTATTT [CACACA_site8336] | 9.9
30 | TAATTCCATAAGTAAACACACAAATGCCAAAATTTT [CACACA_site3205] | 9.71
31 | TCCATATGCAAACTGGTGCACAAGTAGCTTTTATAT | 9.66
32 | ATTGTCCTAAATACTACAAAGTAGATCTTTAATATT [CACACA_negctrl_site1795] | 9.61
33 | CAAAAAAGGTCCCGGAGTACATATATAATTTTTTTT [XGTACX_site458] | 9.48
34 | TATATATTGTTATATACACACATGTATATAAAAAAT [CACACA_site3221] | 9.73
35 | GAGATGACATTACACAGTACCCAGGAAATCTACGGA [XGTACX_site4931] | 9.64
36 | GGAATATGTATATTTTGTACGTATACATTTTTTGGG [XGTACX_site7681] | 9.62
37 | TTTATACAAAAAAACAAAATCAAACAAAAAAAAAAA [CACACA_negctrl_site252] | 9.45
38 | GATATATTTTATATATGTACATACAGTGGTAAATAT [XGTACX_site1324] | 9.72
39 | AAAATTATATATTTTAGTACATAAAATATTGACATA [XGTACX_site2581] | 9.53
40 | ATGTAATGTTATGTTATGTTTTTTTTTTTTTTGTGT [CACACA_negctrl_site1264] | 9.74
41 | TTTTAAACAGGACACACACACATATATATATATATA [CACACA_site4664] | 10.5
42 | AGTACGTAAATTATAATACACACTATAGGATATTCT [CACACA_site2559] | 9.87
43 | TTTTCTACATCTTGTTGTACGAAAAATAAAAAAAAT [XGTACX_site4620] | 9.17
44 | ATATTATAATATTTATGTACATATATATAATATATA [XGTACX_site1633] | 9.43

Row | Sequence | gcPBM binding intensity (ln)
45 | TATTAGCATGTTATTACACACAATATAAGATATATA [CACACA_site6775] | 9.65
46 | ACATTTTGTGTTTTAGCACACAATTTTTCAGAATAT [CACACA_site2961] | 9.74
47 | AATATATATTTATAAACACACACCAAAATTTGTGCT [CACACA_site3091] | 9.88
48 | TAAAAAAAAACAGAAACACACATTATTCATATATAT [CACACA_site2049] | 10.2
49 | AAAATATTTATGTATGCATGTTGTAATATTTCTTTA [TGCATGCA_site296] | 9.61
50 | ATTTCCCCTTTTTATTGTACATTTTTATTTGTTACT [XGTACX_site4845] | 10
51 | TATGCTATATATTTAGTGCATATATATAACTTTTAT [GTGCAC_site9902] | 9.42
52 | TATATATGTATCATTACACACATGTATACTTATTTG [CACACA_site4138] | 9.97
53 | TGTATAAATATATATACACACATATTTATATATATA [CACACA_site755] | 9.68
54 | TACATTTGTATAAATAGTACGCGAAAACAAAAAAAA [XGTACX_site6246] | 9.75
55 | ATATATGTGCCCATATATATATATATAAATATATGT [GTGCAC_negctrl_site226] | 9.65
56 | ATAATATAAATAATTATACACACTTAATATATATAT [CACACA_site2782] | 9.76
57 | GTATGTATGTATGTATGTACGTATTTATTTATTTAA [XGTACX_site726] | 9.73
58 | AAGAAAAATAATTAGGGTGAAAATATATAGAGTAAA [TGCATGCA_negctrl_site590] | 9.69
59 | CAATTCTTAAGTTCTTGTACGAAAAACGACAATTTA [XGTACX_site3890] | 9.34
60 | GGTAATAATATGCATAGTACATAATATATATATATA [XGTACX_site6793] | 9.72
61 | TATTATATAAAATATTTTATTATATCATCTTCTCTA [XGTACX_negctrl_site319] | 9.44
62 | ATCATATTTTTATGTGTGCACTTTTTTTTTTTTTTT [GTGCAC_site9555] | 10.1
63 | CTCTTATACATATTCCTGCACTTATTTTTAAAAACA [GTGCAC_site9620] | 9.75
64 | AAAAATGGTGTTAACACACACATATAAATAAATATA [CACACA_site6412] | 10.4
65 | AAGGATCACCCACAAACACACATATATATATATATA [CACACA_site559] | 10.7
66 | AACATAAGTAATATTTGTACATATATAATAATATAT [XGTACX_site5123] | 9.74

Row | Sequence | gcPBM binding intensity (ln)
67 | AACATGCAAACATGCACACAGAAAAAAAAAATATAT [CACACA_site1565] | 10
68 | TTACACATACATATGTGGGAAAATATTGCTACATAT [CACACA_negctrl_site463] | 9.78
69 | AAGAAAAGCATAGATGCACACATATATATATATATA [CACACA_site8675] | 10.5
70 | GGAACTTAAAAAAAATGTACTTATAAAAAAGGAAAT [XGTACX_site8186] | 9.56
71 | AAAAAAATATATATATGTACATAACTTTGTTGTGAT [XGTACX_site5243] | 9.8
72 | TGTTAAATTATTTATCAGATTATTATTTGTAAATAA [CACACA_negctrl_site1535] | 9.28
73 | TTTGAACATTTTGCAAGTACAAAAAAATAATATATC [XGTACX_site8079] | 9.53
74 | TATATATATATATATACACACATATATATATTTTTC [CACACA_site3983] | 10.1
75 | ATCATTATATTATGGTGTACCCATATATAATTATCA [XGTACX_site551] | 9.61
76 | AATTTAAAGAATTGTAGTACAATGAAATATATATAA [XGTACX_site7970] | 9.95
77 | CATTAAACCGTGGGAGCACACACACCCACCCACCCA [CACACA_site8000] | 10
78 | AATACCTATGGAATTAATAATATGTGTACAGACACA [TGCATGCA_negctrl_site547] | 9.63
79 | AACAATGGATTATTCACACATAAAAAAATTCACATT [CACACA_site5437] | 9.66
80 | TTATAATAAAAGGCTTTACAATTATTAAACAAATAA [GTGCAC_negctrl_site480] | 9.35
81 | AAAAAAGAAGAGCACACACACATATATAAATATAAA [CACACA_site631] | 10.4
82 | GCCATTGTACCATCCACACACATATATATCTGTATA [CACACA_site5490] | 10.2
83 | TGGTATTAAGGAGAGGGTACAAAAAAAAAAAAAAAA [XGTACX_site1668] | 9.01
84 | AAAGATGAATTTTTTACACACACCATTTTATAATAT [CACACA_site3676] | 10.2
85 | TAAAATTTTGTTTGTTGTACTTATTTTCGTGTCAAC [XGTACX_site8277] | 9.58
86 | AAAAGTATAATAAATTGTACTAACAAATATTTATGT [XGTACX_site7721] | 9.7
87 | AAAAAAAAAAAAAAAAAAAAATATATATATATATAT [GTGCAC_negctrl_site426] | 9.47
